Hit rate of the full screen: of about 110,000 compounds, about 40 (0.04%) were called active. Inconclusive results, whose numbers are uncertain, are shown with a selection of clear calls. Calls come from the whole dose curve; as a rule, active = well fitted curve in the direction sought with a large enough effect in the signal ratio (not every such curve was filed as active); inconclusive = small, poorly fitted or top-dose-only effect, or a change in a side signal; inactive = flat fitted curve, though single readings scatter; the % refers to the signal ratio. Potencies of inconclusive entries are doubtful fits and often do not repeat.
test: IkB Signaling; conditions: ABC-DLBCL IkBa-CBG/CBR dual luciferase ratio (green luciferase fused to IkBa over red control in OCI-Ly3 lymphoma cells), 4 h; IkBa stabilization activation: at 57.1 µM (top of the series), scaled: untreated 0%, proteasome inhibitor 100% unless noted;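 for IkBa stabilization activation: 0% = basal untreated cells and 100% = reference inhibitor full response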
Outline: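 In this assay, an IκBα–CBG68 fusion accumulates when IKK-driven degradation is blocked; native CBR normalizes for cell number. OCI-Ly3 cells were treated 4 h with compound and doxycycline, then green and red light read after Chroma-Glo addition.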
Potency is the fitted concentration of half-maximal effect.

SMILES	IkBa stabilization activation	Potency
Cc1ccc(Cn2c(C(C)NC(=O)c3ccccc3)nc3ccccc32)cc1 (centres undefined)	inconclusive: 1.12% [signal inhibitor]	
COc1cc(C(c2sc3nc(C)nn3c2O)N2CCN(c3ccccc3)CC2)cc(OC)c1OC (centres undefined)		inconclusive: 15.8 µM [signal inhibitor, partial curve]
CC(C)NC(=O)CCC(=O)N1Cc2ccccc2Oc2ncccc21	inactive	
Cc1noc(C)c1S(=O)(=O)N1CCC(C(=O)N2CCN(c3cccc(C(F)(F)F)c3)CC2)CC1	inconclusive: 8.88% [signal inhibitor]	
CCC1CCCCN1C(=O)CSc1nc2c([nH]c3ccccc32)c(=O)n1-c1ccc(OC)cc1 (centres undefined)	inconclusive: 4.11% [signal inhibitor]	
Cc1cccc(Cn2cccc2CNS(=O)(=O)c2ccc(Br)cc2)c1	inconclusive: 3.69% [signal inhibitor]	
O=C(c1cc2nc(-c3ccco3)cc(C(F)(F)F)n2n1)N1CCN(c2ccc(F)cc2)CC1	inconclusive: 4.77% [signal inhibitor]	
CC1(C)CC(=O)C2=C(C1)NC(SCC(=O)Nc1ccccc1)=C(C#N)C2c1ccco1 (centres undefined)	inactive	
COc1ccc(NC(=O)c2cccs2)cc1O		inconclusive: 31.6 µM [signal inhibitor, partial curve]
COc1ccc(S(=O)(=O)Nc2cc(S(=O)(=O)c3ccccc3)c(O)c(C)c2C)cc1	inconclusive: 0.487% [signal inhibitor]	
COC(=O)C(C)N(C#N)c1nc(C)nc(C)n1 (centres undefined)	inconclusive: -1.56% [signal inhibitor]	
Cc1cc(OC(C)C(=O)Nc2sc3c(c2C(N)=O)CCCC3)ccc1Cl (centres undefined)	inactive	
CCOC(=O)N1CCN(S(=O)(=O)c2ccc(OC)c3ccccc23)CC1	inconclusive: 3.84% [signal inhibitor]	
COc1ccc(OC)c(NC(=O)CN(c2ccc(C)cc2)S(=O)(=O)c2c(C)noc2C)c1	inconclusive: 1.94% [signal inhibitor]	
COc1cccc(-c2nc(S(=O)(=O)c3ccc(C)cc3)c(N3CCCCC3)o2)c1	inconclusive: 2.96% [signal inhibitor]	
Nc1c(Nc2ccccc2)c2ccccc2oc1=O	inconclusive: 0.241% [signal inhibitor]	
CCOC(=O)c1ccccc1NC(=O)CSc1nccn1Cc1ccco1	inconclusive: -2.09% [signal inhibitor]	
CC(C)Oc1ccc(C(=O)N(Cc2ccco2)Cc2cccs2)cc1	inconclusive: 0.983% [signal inhibitor]	
Cc1cccc(C)c1NC(=O)c1sc(-n2nc(C)c(Cc3ccccc3)c2C)nc1C	inconclusive: -0.183% [signal inhibitor]	

Source: PubChem BioAssay AID445 (National Center for Advancing Translational Sciences (NCATS), 2006)
